Reference: PubChem BioAssay AID588855 (National Center for Advancing Translational Sciences (NCATS), 2011)
The whole screen tested about 410,000 compounds, of which about 5,000 (1.2%) were called active. This list was built around the results that the source calls inconclusive (neither active nor inactive); the mix of calls is not that of the screen. The call rests on the fitted dose curve; in most records, active means well fitted inhibition curve with a large enough effect; inconclusive means small, poorly fitted or top-dose-only effect; inactive means no such curve, though single readings can be large or run the other way. A potency beside an inconclusive call is a rough fit, not a confirmed value.

experiment: qHTS for Inhibitors of TGF-b; settings: HepG2 CAGA-GFP TGF-b/SMAD3 reporter, GFP fluorescence, 18 h, TGF-beta stimulated, 500 pg/mL final; series mostly up to 46.1 µM; further: nearly all actives have a fitted effect of over 65% in size
In short: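 Per well, imaged GFP fluorescence of HEPG2 CAGA-GFP cells gives the signal; cells get compound, then TGF-beta (500 pg/mL final), 18 h at 37 degrees C; %Activity versus -TGF-beta and +DMSO controls.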
Potency means the concentration at half of the fitted maximal effect; tags describe the fitted curve by direction and shape.

Compound | Potency
Cc1ccc(S(=O)(=O)c2cc(Nc3ccccc3)ccc2O)cc1 | inconclusive: 35.5 µM [inhibitor, single point]
CCOC(=O)Cc1csc(NC(=O)C(C)(C)CC)n1 | inactive
CCOC(=O)N1CCC(NS(=O)(=O)c2cc3c(cc2Br)CCN3C(=O)CC)CC1 | inconclusive: 35.5 µM [inhibitor, single point]
COc1ccc2c(c1)OC[C@H]1[C@H]2N2C(=O)c3ccccc3NC(=O)[C@@]2(C)[C@H]1c1ccccc1 | inconclusive: 35.5 µM [inhibitor, single point]
CCCCCNC(=O)c1cn(CC)c2cc(N3CCN(C)CC3)c(F)cc2c1=O | inconclusive: 35.5 µM [inhibitor, single point]
Cc1cccc(Oc2nc(-c3ccccn3)nc3ccccc23)c1 | inconclusive: 0.398 µM [inhibitor, full curve, poor fit]
C=CCOC(=O)C1=C[C@@H](c2csc3ccccc23)C[C@@H](OCCCCO)O1 | inconclusive: 8.91 µM [inhibitor, single point]
C[C@@H]1CC[C@H]2C(=O)N3[C@@H](CC[C@@H](C)[C@@H]3c3ccc(Br)cc3)C(=O)N2[C@H]1c1ccc(Br)cc1 | inconclusive: 20 µM [inhibitor, partial curve, poor fit]
CS(=O)(=O)c1ccc(Nc2nc(C(N)Cc3ccc(Cl)cc3)cs2)cc1 (stereo not given) | inconclusive: 22.4 µM [inhibitor, single point]
O=C(NC1CCCC1)C(c1ccc(Cl)cc1)N1CCc2ccccc21 (stereo not given) | inconclusive: 5.62 µM [inhibitor, single point]
CN(C)/C=C\C(=C/C(=O)C(F)(F)F)Nc1ccccc1Oc1ccccc1 | inconclusive: 25.1 µM [inhibitor, single point]
COc1ccc(C)cc1S(=O)(=O)N(C)CC(=O)NC1CCCCCC1 | inactive
CC1CN(CCCCSc2ccc(Cl)cc2)CC(C)O1 (stereo not given) | inconclusive: 12.6 µM [inhibitor, partial curve, poor fit]
C[C@H](CO)N1C[C@H](C)[C@@H](CN(C)S(=O)(=O)c2cn(C)cn2)Oc2ccc(NC(=O)Cn3cnnn3)cc2C1=O | inactive
CC1Sc2ccc(C(=O)NCc3ccccn3)cc2NC1=O (stereo not given) | inconclusive: 11.2 µM [inhibitor, partial curve, poor fit]
N#Cc1ccc(-c2ccc(C3Nc4ccccc4C(=O)N3O)o2)cc1 (stereo not given) | inconclusive: 22.4 µM [inhibitor, single point]
O=[N+]([O-])c1ccc(S(=O)(=O)NCC(c2cccnc2)N2CCc3ccccc32)cc1 (stereo not given) | inconclusive: 35.5 µM [inhibitor, single point]
CN1C(=O)S/C(=C\c2ccc(-n3cncn3)cc2)C1=O | inactive
COc1cc(/C=C/C(=O)O)cc(S(=O)(=O)Nc2ccc3c(c2)OCO3)c1OC | inactive
O=S(=O)(Nc1nc2ccccc2nc1NCC1CCCO1)c1cccc(Cl)c1 (stereo not given) | inconclusive: 25.1 µM [inhibitor, single point]

Compound | Potency
CC(C)CN(C(=O)c1cccc(S(=O)(=O)N2CCN(c3ccc(F)cc3)CC2)c1)C1CCS(=O)(=O)C1 (stereo not given) | inactive
C[C@]12CCC3c4ccc(O)cc4CCC3C1CC/C2=N\N (stereo not given in full) | inactive
Cc1ccc(CCNC(=O)C2CC(c3cccc(F)c3)=NO2)cc1 (stereo not given) | inconclusive: 2.24 µM [inhibitor, partial curve, poor fit]
COc1ccc(CCN2C(=O)c3[nH]nc(-c4ccccc4O)c3C2c2ccccc2)cc1 (stereo not given) | inconclusive: 11.2 µM [inhibitor, partial curve, poor fit]
C[C@H](CO)N1C[C@H](C)[C@@H](CN(C)S(=O)(=O)c2ccccc2)Oc2ccc(NC(=O)Nc3ccccc3)cc2C1=O | inconclusive: 12.6 µM [inhibitor, partial curve, poor fit]
COc1ccc2c(c1)c1nc3n(c(=O)c1n2CC(=O)Nc1ccccc1)CCS3 | inconclusive: 10 µM [inhibitor, partial curve]
Cc1c(C(=O)N(C)C)sc2c1c(=O)n(-c1ccc(F)cc1)c(=O)n2Cc1ccccc1C#N | inactive
CC1CC(C)CN(S(=O)(=O)c2ccc3c(c2)CC(C)N3C(=O)C2CC2)C1 (stereo not given) | inconclusive: 35.5 µM [inhibitor, partial curve, poor fit]
CC(C)N(C)Cc1nnnn1CC(=O)NCc1cc(F)cc(C(F)(F)F)c1 | inactive
CCCn1c(CC)nc([N+](=O)[O-])c1S(=O)(=O)c1ccccc1 | inconclusive: 5.01 µM [inhibitor, full curve, poor fit]
N#C/C(=C\c1ccco1)c1nc2ccccc2s1 | inactive
CC1(Cc2ccc(Cl)s2)C(=O)Nc2c(Cl)ccc(Cl)c21 (stereo not given) | inconclusive: 35.5 µM [inhibitor, single point]
CCOC(=O)C1=C(c2ccccc2)NC(=S)NC1c1ccc(Cl)cc1 (stereo not given) | inconclusive: 35.5 µM [inhibitor, single point]
CC(C)c1nc(SCC(=O)c2ccc(F)cc2)c2ccccc2n1 | inconclusive: 15.8 µM [inhibitor, single point]
Cn1c(NCc2ccco2)nc2c1c(=O)n(Cc1ccc(Cl)cc1Cl)c(=O)n2C | inactive
CCC(=O)Nc1ccccc1-c1nc2ccccc2n(C(CC)C(=O)Nc2cccc(Cl)c2)c1=O (stereo not given) | inactive
CC(C)CC(C(=O)OCC(=O)c1c(N)n(C)c(=O)n(C)c1=O)N1C(=O)c2ccccc2C1=O (stereo not given) | inconclusive: 35.5 µM [inhibitor, single point]
CCOC1=C2CN(S(=O)(=O)c3ccc(C)cc3)[C@H](c3ccccc3)C[C@@H]2N(S(=O)(=O)c2ccccc2C)[C@H](c2ccccc2)C1 | inconclusive: 5.62 µM [inhibitor, full curve]
CCOc1cc(-c2nccc3cc(OC)c(OC)cc23)cc(OCC)c1OCC | inconclusive: 17.8 µM [inhibitor, single point]
Cc1ccc(CNC(=O)CCc2cn(Cc3ccc(C)cc3)c3ccccc23)cc1 | inconclusive: 7.94 µM [inhibitor, partial curve, poor fit]
